Reference: patent US9433687B2, “Anti-Notch3 antibodies and antibody-drug conjugates” (Pfizer Inc., priority 2012, dated 2016)

Legend:
[1] = tested on: MDA-MB-468 breast xenografts; assay: MDA-MB-468 breast xenograft model; assay type: in vivo, mouse
Procedure: Similar in vivo experiments were performed with the MDA-MB-468 breast cancer cell line as described above. MDA-MB-468 cells are classified as a triple-negative breast cancer (TNBC) basal-like subtype since they lack expression of the estrogen receptor, progesterone receptor and human epidermal growth factor receptor 2 (HER2) (Lehmann, B D, et al, J Clin Invest. 2011; 121(7):2750-2767). To generate xenografts, female SCID Hairless Outbred (SHO) mice were orthotopically implanted with 10×10^6 MDA-MB-468 cells containing 50% Matrigel (BD Biosciences) in the mammary fat pad. […] FIGS. 13A and 13B show graphs of the data from Table 23 of anti-Notch3 ADCs with vc0101 linker-payloads compared to control huNeg-8.8 ADCs and PBS vehicle. FIGS. 14A and 14B show graphs of the data from Table 24 of the anti-Notch3 ADCs with vc6780 linker-payloads compared to control huNeg-8.8 ADC and PBS vehicle.
The MDA-MB-468 breast cancer model was also dosed intravenously Q4d×4 with PBS vehicle, rat-human chimeric anti-Notch3 ADCs and control huNeg-8.8 ADCs, at a dose of 5 mg/kg as provided in FIGS. 16B and 16C.

[2] = tested on: N87 gastric xenografts; assay: N87 gastric xenograft model; assay type: in vivo, mouse; conditions: Table 27 study
Procedure: Similar in vivo experiments were performed with the N87 gastric cancer cell line as described above. To generate xenografts, nude (Nu/Nu) female mice were implanted subcutaneously with 8×10^6 N87 cells in 50% Matrigel (BD Biosciences).
The N87 gastric model was also dosed intravenously Q4d×4 with PBS vehicle, rat-human chimeric anti-Notch3 ADCs and control huNeg-8.8 ADCs, at a dose of 5 mg/kg as provided in FIG. 16D.
The N87 gastric model was also dosed intravenously Q4d×4 with PBS vehicle and rat-human chimeric anti-Notch3 ADCs ch28-mc0131, ch75-mc0131, ch28-m(H2O)c-0131 and ch75-m(H2O)c-0131 at a dose of 5 mg/kg as provided in FIG. 16E.

B1: hu28-vc6780 (conjugate)
heavy: EVQLVESGGGLVQPGGSLRLSCAASGFTFRDYGMTWVRQAPGKGLEWVAYISSGSNYIYYAEAVKGRFTISRDNAKNSLYLQMNSLRAEDTAVYYCARRGPFVLDAWGQGTLVTVSS[letters of human IgG1 constant region omitted]
light: DIQMTQSPSSLSASVGDRVTITCKASQSINRYLHWYQQKPGKAPKLLIYNANGLQTGVPSRFSGSGSGTDFTLTISSLQPEDFATYYCLQHNTWPDTFGGGTKVEIKRTVAAPSVFIFPPSDEQLKSGTASVVCLLNNFYPREAKVQWKVDNALQSGNSQESVTEQDSKDSTYSLSSTLTLSKADYEKHKVYACEVTHQGLSSPVTKSFNRGEC
tumor volume (mm^3 ± SEM) ([1]; Table 24, 1 mg/kg i.v. Q4d×4, DAY 4): 462 mm^3
tumor volume (mm^3 ± SEM) ([1]; Table 24, 1 mg/kg i.v. Q4d×4, DAY 7): 452 mm^3
tumor volume (mm^3 ± SEM) ([1]; Table 24, 1 mg/kg i.v. Q4d×4, DAY 11): 512 mm^3
tumor volume (mm^3 ± SEM) ([1]; Table 24, 1 mg/kg i.v. Q4d×4, DAY 14): 507 mm^3
tumor volume (mm^3 ± SEM) ([1]; Table 24, 1 mg/kg i.v. Q4d×4, DAY 19): 538 mm^3
tumor volume (mm^3 ± SEM) ([1]; Table 24, 1 mg/kg i.v. Q4d×4, DAY 22): 551 mm^3
tumor volume (mm^3 ± SEM) ([1]; Table 24, 1 mg/kg i.v. Q4d×4, DAY 25): 575 mm^3
tumor volume (mm^3 ± SEM) ([1]; Table 24, 1 mg/kg i.v. Q4d×4, DAY 28): 654 mm^3
tumor volume (mm^3 ± SEM) ([1]; Table 24, 1 mg/kg i.v. Q4d×4, DAY 32): 653 mm^3
tumor volume (mm^3 ± SEM) ([1]; Table 24, 1 mg/kg i.v. Q4d×4, DAY 35): 734 mm^3
tumor volume (mm^3 ± SEM) ([1]; Table 24, 1 mg/kg i.v. Q4d×4, DAY 40): 761 mm^3
tumor volume (mm^3 ± SEM) ([1]; Table 24, 1 mg/kg i.v. Q4d×4, DAY 43): 816 mm^3
tumor volume (mm^3 ± SEM) ([1]; Table 24, 1 mg/kg i.v. Q4d×4, DAY 46): 859 mm^3
tumor volume (mm^3 ± SEM) ([1]; Table 24, 1 mg/kg i.v. Q4d×4, DAY 49): 948 mm^3
tumor volume (mm^3 ± SEM) ([1]; Table 24, 1 mg/kg i.v. Q4d×4, DAY 53): 1008 mm^3
tumor volume (mm^3 ± SEM) ([1]; Table 24, 3 mg/kg i.v. Q4d×4, DAY 4): 394 mm^3
tumor volume (mm^3 ± SEM) ([1]; Table 24, 3 mg/kg i.v. Q4d×4, DAY 7): 399 mm^3
tumor volume (mm^3 ± SEM) ([1]; Table 24, 3 mg/kg i.v. Q4d×4, DAY 11): 380 mm^3
tumor volume (mm^3 ± SEM) ([1]; Table 24, 3 mg/kg i.v. Q4d×4, DAY 14): 401 mm^3
tumor volume (mm^3 ± SEM) ([1]; Table 24, 3 mg/kg i.v. Q4d×4, DAY 19): 438 mm^3
tumor volume (mm^3 ± SEM) ([1]; Table 24, 3 mg/kg i.v. Q4d×4, DAY 22): 414 mm^3
tumor volume (mm^3 ± SEM) ([1]; Table 24, 3 mg/kg i.v. Q4d×4, DAY 25): 491 mm^3
tumor volume (mm^3 ± SEM) ([1]; Table 24, 3 mg/kg i.v. Q4d×4, DAY 28): 497 mm^3
tumor volume (mm^3 ± SEM) ([1]; Table 24, 3 mg/kg i.v. Q4d×4, DAY 32): 524 mm^3
tumor volume (mm^3 ± SEM) ([1]; Table 24, 10 mg/kg i.v. Q4d×4, DAY 4): 395 mm^3
tumor volume (mm^3 ± SEM) ([1]; Table 24, 10 mg/kg i.v. Q4d×4, DAY 7): 350 mm^3
tumor volume (mm^3 ± SEM) ([1]; Table 24, 10 mg/kg i.v. Q4d×4, DAY 11): 248 mm^3
tumor volume (mm^3 ± SEM) ([1]; Table 24, 10 mg/kg i.v. Q4d×4, DAY 14): 154 mm^3
tumor volume (mm^3 ± SEM) ([1]; Table 24, 10 mg/kg i.v. Q4d×4, DAY 19): 65 mm^3
tumor volume (mm^3 ± SEM) ([1]; Table 24, 10 mg/kg i.v. Q4d×4, DAY 22): 25 mm^3
tumor volume (mm^3 ± SEM) ([1]; Table 24, 10 mg/kg i.v. Q4d×4, DAY 25): 26 mm^3
tumor volume (mm^3 ± SEM) ([1]; Table 24, 10 mg/kg i.v. Q4d×4, DAY 28): 15 mm^3
tumor volume (mm^3 ± SEM) ([1]; Table 24, 10 mg/kg i.v. Q4d×4, DAY 32): 0 mm^3
tumor volume (mm^3 ± SEM) ([1]; Table 24, 10 mg/kg i.v. Q4d×4, DAY 35): 0 mm^3
tumor volume (mm^3 ± SEM) ([1]; Table 24, 10 mg/kg i.v. Q4d×4, DAY 40): 0 mm^3
tumor volume (mm^3 ± SEM) ([1]; Table 24, 10 mg/kg i.v. Q4d×4, DAY 43): 0 mm^3
tumor volume (mm^3 ± SEM) ([1]; Table 24, 10 mg/kg i.v. Q4d×4, DAY 46): 0 mm^3
tumor volume (mm^3 ± SEM) ([1]; Table 24, 10 mg/kg i.v. Q4d×4, DAY 49): 0 mm^3
tumor volume (mm^3 ± SEM) ([1]; Table 24, 10 mg/kg i.v. Q4d×4, DAY 53): 0 mm^3
tumor volume (mm^3 ± SEM) ([1]; Table 24, 10 mg/kg i.v. Q4d×4, DAY 56): 0 mm^3
tumor volume (mm^3 ± SEM) ([1]; Table 24, 10 mg/kg i.v. Q4d×4, DAY 60): 0 mm^3
tumor volume (mm^3 ± SEM) ([1]; Table 24, 10 mg/kg i.v. Q4d×4, DAY 63): 0 mm^3
tumor volume (mm^3 ± SEM) ([1]; Table 24, 10 mg/kg i.v. Q4d×4, DAY 67): 0 mm^3
tumor volume ([2]; DAY 4, dose 1 mg/kg intravenously Q4d×4): 560 mm^3
tumor volume ([2]; DAY 4, dose 3 mg/kg intravenously Q4d×4): 552 mm^3
tumor volume ([2]; DAY 4, dose 10 mg/kg intravenously Q4d×4): 434 mm^3
tumor volume ([2]; DAY 8, dose 1 mg/kg intravenously Q4d×4): 592 mm^3
tumor volume ([2]; DAY 8, dose 3 mg/kg intravenously Q4d×4): 545 mm^3
tumor volume ([2]; DAY 8, dose 10 mg/kg intravenously Q4d×4): 379 mm^3
tumor volume ([2]; DAY 11, dose 1 mg/kg intravenously Q4d×4): 617 mm^3
tumor volume ([2]; DAY 11, dose 3 mg/kg intravenously Q4d×4): 511 mm^3
tumor volume ([2]; DAY 11, dose 10 mg/kg intravenously Q4d×4): 315 mm^3
tumor volume ([2]; DAY 14, dose 1 mg/kg intravenously Q4d×4): 782 mm^3
tumor volume ([2]; DAY 14, dose 3 mg/kg intravenously Q4d×4): 564 mm^3
tumor volume ([2]; DAY 14, dose 10 mg/kg intravenously Q4d×4): 292 mm^3
tumor volume ([2]; DAY 18, dose 1 mg/kg intravenously Q4d×4): 797 mm^3
tumor volume ([2]; DAY 18, dose 3 mg/kg intravenously Q4d×4): 479 mm^3
tumor volume ([2]; DAY 18, dose 10 mg/kg intravenously Q4d×4): 199 mm^3
tumor volume ([2]; DAY 21, dose 1 mg/kg intravenously Q4d×4): 839 mm^3
tumor volume ([2]; DAY 21, dose 3 mg/kg intravenously Q4d×4): 499 mm^3
tumor volume ([2]; DAY 21, dose 10 mg/kg intravenously Q4d×4): 194 mm^3
tumor volume ([2]; DAY 25, dose 1 mg/kg intravenously Q4d×4): 878 mm^3
tumor volume ([2]; DAY 25, dose 3 mg/kg intravenously Q4d×4): 588 mm^3
tumor volume ([2]; DAY 25, dose 10 mg/kg intravenously Q4d×4): 181 mm^3
tumor volume ([2]; DAY 28, dose 1 mg/kg intravenously Q4d×4): 904 mm^3
tumor volume ([2]; DAY 28, dose 3 mg/kg intravenously Q4d×4): 672 mm^3
tumor volume ([2]; DAY 28, dose 10 mg/kg intravenously Q4d×4): 204 mm^3
tumor volume ([2]; DAY 33, dose 1 mg/kg intravenously Q4d×4): 1043 mm^3
tumor volume ([2]; DAY 33, dose 3 mg/kg intravenously Q4d×4): 786 mm^3
tumor volume ([2]; DAY 33, dose 10 mg/kg intravenously Q4d×4): 196 mm^3
tumor volume ([2]; DAY 36, dose 1 mg/kg intravenously Q4d×4): 1108 mm^3
tumor volume ([2]; DAY 36, dose 3 mg/kg intravenously Q4d×4): 827 mm^3
tumor volume ([2]; DAY 36, dose 10 mg/kg intravenously Q4d×4): 189 mm^3
